Test results from the supplement of paper PMC4967469.

Tests used:
Assay in all cases: Viability of human cancer cell lines after 72 h of drug (GDSC screen)
YM155 = compound: COCC[n+]1c2c(n(Cc3cnccn3)c1C)C(=O)c1ccccc1C2=O [YM155]; details: top dose 5.12 µM
Method: (§1)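 Human cancer cell lines in 384-well plates, medium with 10% serum, drug for 72 h over a 256-fold dose range (nine 2-fold or five 4-fold steps up to the top dose). Adherent lines were fixed and stained with the nucleic acid dye Syto60, suspension lines read with resazurin; signal relative to control wells, capped at 0 and 100%. One two-parameter sigmoid per drug and line, fitted in a mixed model over all curves with the slope shared within a line.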

SB-715992 = compound: Cc1ccc(C(=O)N(CCCN)[C@@H](c2nc3cc(Cl)ccc3c(=O)n2Cc2ccccc2)C(C)C)cc1 [SB-715992]; details: top dose 0.128 µM; top dose inferred
Method: as §1

NSC-207895 = compound: CN1CCN(c2ccc([N+](=O)[O-])c3no[n+]([O-])c23)CC1 [NSC-207895]; details: top dose 20 µM; top dose inferred
Method: as §1

AMG-706 = compound: CC1(C)CNc2cc(NC(=O)c3cccnc3NCc3ccncc3)ccc21 [AMG-706]; details: top dose 2 µM; top dose inferred
Method: as §1

OSI-906 = compound: C[C@]1(O)C[C@@H](c2nc(-c3ccc4ccc(-c5ccccc5)nc4c3)c3c(N)nccn32)C1 [OSI-906]; details: top dose 2.56 µM; top dose inferred
Method: as §1

Belinostat = compound: O=C(/C=C/c1cccc(S(=O)(=O)Nc2ccccc2)c1)NO [Belinostat]; details: top dose 20 µM; top dose inferred
Method: as §1

FTI-277 = compound: COC(=O)[C@H](CCSC)NC(=O)c1ccc(NC[C@@H](N)CS)cc1-c1ccccc1 [FTI-277]; details: top dose 1.024 µM; top dose inferred
Method: as §1

JNK Inhibitor VIII = compound: CCOc1nc(NC(=O)Cc2cc(OC)ccc2OC)cc(N)c1C#N [JNK Inhibitor VIII]; details: top dose 10 µM; top dose inferred
Method: as §1

Docetaxel = compound: CC(=O)O[C@@]12CO[C@@H]1C[C@H](O)[C@@]1(C)C(=O)[C@H](O)C3=C(C)[C@@H](OC(=O)[C@H](O)[C@@H](NC(=O)OC(C)(C)C)c4ccccc4)C[C@@](O)([C@@H](OC(=O)c4ccccc4)[C@H]21)C3(C)C [Docetaxel]; details: top dose 0.0125 µM
Method: as §1

JQ1 = compound: Cc1sc2c(c1C)C(c1ccc(Cl)cc1)=N[C@@H](CC(=O)OC(C)(C)C)c1nnc(C)n1-2 [JQ1]
Method: as §1

JNJ-26854165 = compound: c1ccc2c(CCNc3ccc(Nc4ccncc4)cc3)c[nH]c2c1 [JNJ-26854165]; details: top dose 10 µM
Method: as §1

[1] = top dose 1 µM, screen: GDSC drug entry 1218, top dose inferred
[2] = top dose 2.56 µM, screen: GDSC drug entry 163

Cell Line	AUC (YM155)	IC50 (YM155) [nM]	AUC (SB-715992)	IC50 (SB-715992) [nM]	AUC (NSC-207895)	IC50 (NSC-207895) [nM]	AUC (AMG-706)	IC50 (AMG-706) [nM]	AUC (OSI-906)	IC50 (OSI-906) [nM]	AUC (Belinostat)	IC50 (Belinostat) [nM]	AUC (FTI-277)	IC50 (FTI-277) [nM]	AUC (JNK Inhibitor VIII)	IC50 (JNK Inhibitor VIII) [nM]	AUC (Docetaxel)	IC50 (Docetaxel) [nM]	AUC (JQ1; [1])	IC50 (JQ1; [1]) [nM]	AUC (JQ1; [2])	IC50 (JQ1; [2]) [nM]	AUC (JNJ-26854165)	IC50 (JNJ-26854165) [nM]
PCI-6A (head and neck, adherent)	0.195	40.5	0.656	21.4	0.988	> 20000	0.971	> 2000	0.988	> 2560	0.206	173	0.981	> 1020	0.972	> 10000	0.296	0.211	0.986	> 1000	0.547	214	0.84	6700
PCI-15A (head and neck, adherent)	0.986	> 5120	0.837	87	0.985	> 20000	0.911	> 2000	0.93	> 2560	0.984	> 20000	0.987	> 1020	0.785	4330	0.862	10.9	0.982	> 1000	0.887	> 2560	0.791	4550
PE/CA-PJ15 (head and neck, adherent)	0.059	< 20	0.957	> 128	0.983	> 20000	0.947	> 2000	0.982	> 2560	0.556	1800	0.974	> 1020	0.961	> 10000	0.803	6.78	0.959	> 1000	0.893	> 2560	0.836	7390
PL4 (pancreas, adherent)	0.031	< 20	0.978	> 128	0.945	> 20000	0.973	> 2000	0.971	> 2560	0.698	4610	0.987	> 1020	0.987	> 10000	0.843	9.27	0.986	> 1000	0.972	> 2560	0.956	> 10000
RCM-1 (large intestine, adherent)	0.674	1090	0.973	> 128	0.984	> 20000	0.985	> 2000	0.982	> 2560	0.5	1250	0.962	> 1020	0.985	> 10000	0.837	11.1	0.96	> 1000	0.816	1830	0.91	> 10000
RERF-LC-MS (lung adenocarcinoma, adherent)	0.225	49.2	0.933	> 128	0.932	> 20000	0.987	> 2000	0.982	> 2560	0.455	937	0.955	> 1020	0.986	> 10000	0.61	1.58	0.968	> 1000	0.925	> 2560	0.821	5990
RH-41 (rhabdomyosarcoma, adherent)	0.019	< 20	0.766	40.1	0.89	16400	0.968	> 2000	0.614	311	0.629	2660	0.989	> 1020	0.991	> 10000	0.627	1.64	0.992	> 1000	0.818	1160	0.936	> 10000
RKN (ovary, adherent)	0.118	< 20	0.731	38.1	0.957	> 20000	0.976	> 2000	0.941	> 2560	0.495	1210	0.968	> 1020	0.983	> 10000	0.553	1.1	0.984	> 1000	0.837	1860	0.903	> 10000
RO82-W-1 (thyroid, adherent)	0.076	< 20	0.982	> 128	0.891	> 20000	0.924	> 2000	0.956	> 2560	0.508	1320	0.953	> 1020	0.97	> 10000	0.764	5.78	0.98	> 1000	0.856	> 2560	0.944	> 10000
RPMI-2650 (head and neck, adherent)	0.06	< 20	0.922	> 128	0.91	> 20000	0.984	> 2000	0.894	> 2560	0.342	439	0.894	> 1020	0.961	> 10000	0.698	2.95	0.956	> 1000	0.601	310	0.953	> 10000
SAS (head and neck, adherent)	0.03	< 20	0.902	> 128	0.768	8350	0.976	> 2000	0.893	> 2560	0.38	560	0.967	> 1020	0.978	> 10000	0.665	2.38	0.955	> 1000	0.93	> 2560	0.854	9380

IC50 is the fitted dose that halves viability relative to control wells, and lower means more sensitive; fits outside the tested doses are given as limits. AUC is the area under the same curve over the 256-fold range up to the top dose, as a fraction: 1 means no effect, lower means more sensitive. For part of these data: The top dose, if marked as inferred, is not printed in the source and was worked back from the curve model. For part of these data: Where an entry number is given, a second screen of the drug exists; the two often differ.
